In PubChem BioAssay AID652104 (National Center for Advancing Translational Sciences (NCATS), 2013):
The campaign covered roughly 410,000 compounds. About 7,200 (1.8%) were called active. Inconclusive means that the source gave no clear call. Such entries were picked first, then a sample of the others. The call rests on the fitted dose curve; in most records, active means well fitted activation curve with a large enough effect; inconclusive means small, poorly fitted or top-dose-only effect, or another doubt; inactive means no such curve, though single readings can be large or run the other way. No potency is given beside an inconclusive call; the fits are too rough.

Assay: qHTS of TDP-43 Inhibitors; further: nearly all actives have a fitted effect of over 50% in size
Settings: TDP-43 expressing yeast growth rescue, BacTiter-Glo, 24 h; series mostly up to 46.1 µM
Procedure, shortened: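 Luminescence from BacTiter-Glo reports growth of TDP-43-expressing yeast after 24 hr at 30 deg C with compound. Cells were raffinose-pregrown to mid-log, then seeded in galactose medium at OD600=0.02.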
Potency means the concentration at half of the fitted maximal effect; tags describe the fitted curve by direction and shape.

**Q.** With `CC1CCN(CCNC(=O)CCS(=O)(=O)c2ccc(Br)cc2)CC1` as the molecule, how does the Potency read?
**A.** Its Potency is “inactive”.

**Q.** With `COc1cccc(-c2cc3c(c4c2ccn4C)C2CCC3C2)c1` (stereo not drawn) as the molecule, how does the Potency read?
**A.** Its Potency is inconclusive [activator, partial curve].

**Q.** For `CC(C)=C1C2CCC1C1C(=O)N(NC(=O)COc3ccc(Cl)c(C)c3)C(=O)C21` (stereo not drawn), which Potency is on record?
**A.** The Potency was inconclusive [activator, single point].

**Q.** For `CC(Oc1ccccc1)C(=O)Nc1cccc(NC(=O)c2ccco2)c1` (stereo not drawn), which Potency is on record?
**A.** Its Potency is inconclusive [activator, single point].

**Q.** For `Cc1ccc2ccccc2c1CSc1nc(N)nc2c1ncn2CC(C)C`, which Potency is on record?
**A.** The Potency was inconclusive [activator, single point].

**Q.** With `Cc1cccc(-c2nc(SCc3ccc(Br)cc3)n3[nH]c(=O)cc3n2)c1` as the molecule, how does the Potency read?
**A.** Its Potency is “inactive”.

**Q.** With `COc1ccc(CC(=O)NCCS(=O)(=O)N2CCN(c3ccccc3)CC2)cc1` as the molecule, how does the Potency read?
**A.** Its Potency is “inactive”.

**Q.** For `Cc1ccc(NC(=O)CSc2ccccc2NC(=O)c2ccccc2Cl)cc1Cl`, which Potency is on record?
**A.** Its Potency is inconclusive [activator, full curve, poor fit].

**Q.** For `CCOC(=O)c1cnn(-c2ccc(OC)cc2)c1C1CCN(C(=O)OC(C)(C)C)CC1`, which Potency is on record?
**A.** Its Potency is inconclusive [activator, single point].

**Q.** With `CC1(C)Cc2cccc(OCC(=O)NCCOc3ccccc3)c2O1` as the molecule, how does the Potency read?
**A.** The Potency was inconclusive [activator, partial curve].

**Q.** For `O=C(c1ccc(F)cc1)C1CCN(C(=O)Nc2ccc(F)cc2)CC1`, which Potency is on record?
**A.** Its Potency is inconclusive [activator, single point].

**Q.** Which Potency does the source give for `COc1cc(-n2c(C)nc3cc(C(=O)N4CCOCC4)ccc32)cc(OC)c1OC` here?
**A.** Its Potency is “inactive”.

**Q.** For `CNc1nc(C)c([N+](=O)[O-])c(Nc2ccc(OC)cc2)n1`, which Potency is on record?
**A.** Its Potency is active: 12.6 µM.

**Q.** Which Potency does the source give for `COc1ccc([N+](=O)[O-])cc1NC1CCCCC1` here?
**A.** The Potency was active: 20 µM.

**Q.** For `O=C1OC(/C(=C\Nc2cc(Cl)ccc2O)[N+](=O)[O-])c2ccccc21` (stereo not drawn), which Potency is on record?
**A.** The Potency was inconclusive [activator, partial curve].

**Q.** Which Potency does the source give for `COc1ccccc1-c1cc2nc(-c3ccccc3)cc(N3CCN(C(=O)c4ccoc4)CC3)n2n1` here?
**A.** The Potency was inconclusive [activator, full curve].

**Q.** For `Cc1cc(-c2onc3ccc(Cl)cc23)ccc1O`, which Potency is on record?
**A.** Its Potency is inconclusive [activator, full curve].

**Q.** Which Potency does the source give for `COC(=O)c1ccc(NC(=O)CSc2nc(=O)n(Cc3ccco3)c3c2CCC3)cc1` here?
**A.** The Potency was “inactive”.

**Q.** Which Potency does the source give for `Cc1cc(NC(=O)CN2C(=O)C(C)(C)c3ccccc32)ccc1Br` here?
**A.** Its Potency is “inactive”.

**Q.** With `CCN(C(=O)CSc1nc2ccccc2n1CC(=O)Nc1cccc(C#N)c1)c1ccccc1` as the molecule, how does the Potency read?
**A.** Its Potency is “inactive”.

**Q.** Which Potency does the source give for `CC(=O)c1c(-c2ccccc2)[nH]c2ccccc12` here?
**A.** The Potency was inconclusive [activator, partial curve].

**Q.** With `C[C@@H]1O[C@H](C2CCCC2)CC2=C1C(=O)OC(C)(C)O2` as the molecule, how does the Potency read?
**A.** Its Potency is inconclusive [activator, full curve, poor fit].

**Q.** For `COc1ccc(C(=O)Nc2cccc(NC(=O)c3cccs3)c2)cc1`, which Potency is on record?
**A.** Its Potency is inconclusive [activator, partial curve].

**Q.** Which Potency does the source give for `Cc1ccc(CSc2nsc(C)c2C#N)cc1` here?
**A.** Its Potency is inconclusive [activator, partial curve].

**Q.** With `O=C(CSCc1ccc([N+](=O)[O-])cc1)Nc1ccc(S(=O)(=O)N2CCCCCC2)cc1` as the molecule, how does the Potency read?
**A.** The Potency was inconclusive [activator, partial curve, poor fit].

**Q.** For `CC(=O)C1=C(OC(=O)C(C)C)c2ccccc2S(=O)(=O)N1Cc1ccccc1`, which Potency is on record?
**A.** The Potency was inconclusive [activator, partial curve].

**Q.** Which Potency does the source give for `CC(=O)Cc1c(C(=O)O)c(C)nn1-c1ccccc1` here?
**A.** Its Potency is inconclusive [activator, full curve, poor fit].

**Q.** With `O=C1CC(c2ccsc2)c2ccc3ccccc3c2N1` (stereo not drawn) as the molecule, how does the Potency read?
**A.** The Potency was inconclusive [activator, partial curve].

**Q.** For `Cc1ccccc1CNC(=O)c1ccc(NC(=O)c2nsc3ccccc23)cc1`, which Potency is on record?
**A.** The Potency was inconclusive [activator, partial curve].

**Q.** Which Potency does the source give for `CN(C)/C=N/c1ncc(C(=O)c2ccc(Cl)cc2Cl)s1` here?
**A.** The Potency was inconclusive [activator, single point].

**Q.** With `COCCCn1c(=O)c2sccc2n(Cc2ccccc2C)c1=O` as the molecule, how does the Potency read?
**A.** The Potency was inconclusive [activator, partial curve, poor fit].

**Q.** For `N#Cc1c(-c2cccc(Br)c2)cc(-c2cccnc2)nc1N`, which Potency is on record?
**A.** Its Potency is inconclusive [activator, full curve].

**Q.** For `Cc1ccc(N2CC3=C(C2=O)C(c2ccc(Br)cc2)NC(=O)N3C)cc1` (stereo not drawn), which Potency is on record?
**A.** The Potency was “inactive”.

**Q.** With `CN1/C(=C\C(=O)COC(=O)c2ccco2)C(C)(C)c2ccccc21` as the molecule, how does the Potency read?
**A.** The Potency was inconclusive [activator, partial curve].

**Q.** For `CN(Cc1ccccc1F)C(=O)c1sccc1-c1ccccc1`, which Potency is on record?
**A.** The Potency was inconclusive [activator, partial curve].

**Q.** With `COCCn1c(=S)[nH]c2ccc(N(C)C)cc2c1=O` as the molecule, how does the Potency read?
**A.** The Potency was inconclusive [activator, single point].

**Q.** With `CC1CCCN(C(=O)CSCC(=O)N=c2sc3ccccc3n2C)C1` (stereo not drawn) as the molecule, how does the Potency read?
**A.** Its Potency is inconclusive [activator, single point].

**Q.** With `COc1ccc(/C=C/C(=O)c2ccc3c(c2)OCCO3)cc1[N+](=O)[O-]` as the molecule, how does the Potency read?
**A.** Its Potency is active: 12.6 µM.

**Q.** With `COc1cccc(-c2sc3ccc(OC)cc3c2-c2ccc(OCCN3CCOCC3)cc2)c1` as the molecule, how does the Potency read?
**A.** The Potency was active: 35.5 µM.

**Q.** Which Potency does the source give for `Cc1ccc2c(cnn2C(=O)CCCC(=O)NC(C)c2ccccc2)c1` (stereo not drawn) here?
**A.** The Potency was inconclusive [activator, single point].

**Q.** With `CN1C(=O)C2(OCCCO2)c2cc(Cl)ccc21` as the molecule, how does the Potency read?
**A.** Its Potency is inconclusive [activator, partial curve].

**Q.** For `COc1ccccc1N1CCN(C2CC(=O)N(c3ccc(Cl)cc3)C2=O)CC1` (stereo not drawn), which Potency is on record?
**A.** The Potency was inconclusive [activator, single point].

**Q.** For `CSc1ncnc2c1ncn2CCCN1CCN(Cc2cccc3ccccc23)CC1`, which Potency is on record?
**A.** Its Potency is inconclusive [activator, full curve, poor fit].
